# Test results as given in the supplement of paper PMC8728848.
# The list shows a part of the results.
# B1: FliD (Clostridium difficile) (protein)
# chain: MSSISPVRVTGLSGNFDMEGIIEASMIRDKEKVNKAKQDQQIVKWKQEIYRDIIKESKNLYDKYLNGDSPNSITNKKAYSATRITSSDESIIVAKGSAGAEKINYQFAVSQMAEPAKVTIKLNSSDPIVQQFPPNASGASSLNIGGVNIPISEQDTTSTIVSKINSLCADNDIRASYSEMTGELIISRKQTGSSSDIDLKVIGNDSLAGQIASDNGITFTTDASGTKSAVVYGKNLEADVTDDQGRVTHISKEQNSFKIDNIDYNVNSKGSAKLVSVTDTEEATKNMKAFVDDYNALMDKVYGLVTTKKSKDYPPLTDEQKDDMTTEEIEKWEKKAKEGILRNDDELRAFVEDIQSMFFGDADTIIALRKLGISEHENYNKKGQISFNADTFSKALIDDSDKVYKALAGYSSNYDDKGMFEKLKKIVFEYSGSSASKLTKKAGMENSSSASQNVYSKQIAEQERNISRLVEKMNDKEKRLYAKYSALESLLNKYSSQMNYFSQAQGN
# Legend:
# Assay in all cases: glycan array binding signal (z-score within array); higher = stronger binding
# Details in all cases: glycan notation: IUPAC condensed, linker removed
# [1] = biological target: Fuc(a1-2)Gal(b1-4)GlcNAc(b1-3)Gal(b1-4)GlcNAc(b1-3)Gal(b1-4)GlcNAc
# In short: (§1)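 The binding signal is a Z-score computed within each array and averaged over linkers. Arrays of the same protein sequence at different concentrations or buffers were also averaged together. Data originate from 3228 arrays in the Consortium for Functional Glycomics database, kept only where the protein sequence was available.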
# [2] = biological target: Fuc(a1-2)Gal(b1-4)GlcNAc(b1-3)GalNAc
# In short: as §1
# [3] = biological target: Fuc(a1-2)Gal(b1-4)GlcNAc(b1-3)[Fuc(a1-2)Gal(b1-4)GlcNAc(b1-6)]GalNAc
# In short: as §1
# [4] = biological target: Fuc(a1-2)Gal(b1-4)GlcNAc(b1-3)[Fuc(a1-3)[Gal(b1-4)]GlcNAc(b1-6)]Gal(b1-4)Glc
# In short: as §1
# [5] = biological target: Fuc(a1-2)Gal(b1-4)GlcNAc(b1-6)GalNAc
# In short: as §1
# [6] = biological target: Fuc(a1-2)Gal(b1-4)GlcNAc6S
# In short: as §1
# [7] = biological target: Fuc(a1-2)Gal(b1-4)[Fuc(a1-3)]GlcNAc
# In short: as §1
# [8] = biological target: Fuc(a1-2)Gal(b1-4)[Fuc(a1-3)]GlcNAc(b1-2)Man(a1-3)[Fuc(a1-2)Gal(b1-4)[Fuc(a1-3)]GlcNAc(b1-2)Man(a1-6)]Man(b1-4)GlcNAc(b1-4)[Fuc(a1-6)]GlcNAc
# In short: as §1
# [9] = biological target: Fuc(a1-2)Gal(b1-4)[Fuc(a1-3)]GlcNAc(b1-2)[Fuc(a1-2)Gal(b1-4)[Fuc(a1-3)]GlcNAc(b1-4)]Man(a1-3)[Fuc(a1-2)Gal(b1-4)[Fuc(a1-3)]GlcNAc(b1-2)Man(a1-6)]Man(b1-4)GlcNAc(b1-4)GlcNAc
# In short: as §1
# [10] = biological target: Fuc(a1-2)Gal(b1-4)[Fuc(a1-3)]GlcNAc(b1-3)Gal(b1-4)[Fuc(a1-3)]GlcNAc
# In short: as §1
# [11] = biological target: Fuc(a1-2)Gal(b1-4)[Fuc(a1-3)]GlcNAc(b1-3)Gal(b1-4)[Fuc(a1-3)]GlcNAc(b1-3)Gal(b1-4)[Fuc(a1-3)]GlcNAc
# In short: as §1
# [12] = biological target: Fuc(a1-2)Gal(b1-4)[Fuc(a1-3)]GlcNAc(b1-3)GalNAc
# In short: as §1
# [13] = biological target: Fuc(a1-2)Gal(b1-4)[Fuc(a1-3)]GlcNAc(b1-3)[Neu5Ac(a2-6)Gal(b1-4)GlcNAc(b1-6)]Gal(b1-4)Glc
# In short: as §1
# [14] = biological target: Fuc(a1-2)Gal3S(b1-4)GlcNAc
# In short: as §1
# [15] = biological target: Fuc(a1-2)Gal6S(b1-3)GlcNAc
# In short: as §1
# [16] = biological target: Fuc(a1-2)Gal6S(b1-3)GlcNAc6S
# In short: as §1
# [17] = biological target: Fuc(a1-2)Gal6S(b1-4)Glc
# In short: as §1
# [18] = biological target: Fuc(a1-2)Gal6S(b1-4)Glc6S
# In short: as §1
# [19] = biological target: Fuc(a1-2)[Gal(a1-3)]Gal
# In short: as §1
# [20] = biological target: Fuc(a1-2)[Gal(a1-3)]Gal(b1-3)GalNAc
# In short: as §1
# [21] = biological target: Fuc(a1-2)[Gal(a1-3)]Gal(b1-3)GalNAc(b1-3)Gal(a1-4)Gal(b1-4)Glc
# In short: as §1
# [22] = biological target: Fuc(a1-2)[Gal(a1-3)]Gal(b1-3)GlcNAc
# In short: as §1
# [23] = biological target: Fuc(a1-2)[Gal(a1-3)]Gal(b1-3)GlcNAc(b1-2)Man(a1-3)[Fuc(a1-2)[Gal(a1-3)]Gal(b1-3)GlcNAc(b1-2)Man(a1-6)]Man(b1-4)GlcNAc(b1-4)GlcNAc
# In short: as §1
# [24] = biological target: Fuc(a1-2)[Gal(a1-3)]Gal(b1-3)GlcNAc(b1-2)Man(a1-3)[Fuc(a1-2)[Gal(a1-3)]Gal(b1-3)GlcNAc(b1-2)Man(a1-6)]Man(b1-4)GlcNAc(b1-4)[Fuc(a1-6)]GlcNAc
# In short: as §1
# [25] = biological target: Fuc(a1-2)[Gal(a1-3)]Gal(b1-3)GlcNAc(b1-3)GalNAc
# In short: as §1
# [26] = biological target: Fuc(a1-2)[Gal(a1-3)]Gal(b1-3)GlcNAc(b1-6)GalNAc
# In short: as §1
# [27] = biological target: Fuc(a1-2)[Gal(a1-3)]Gal(b1-4)Glc
# In short: as §1
# [28] = biological target: Fuc(a1-2)[Gal(a1-3)]Gal(b1-4)GlcNAc
# In short: as §1
# [29] = biological target: Fuc(a1-2)[Gal(a1-3)]Gal(b1-4)GlcNAc(b1-2)Man
# In short: as §1
# [30] = biological target: Fuc(a1-2)[Gal(a1-3)]Gal(b1-4)GlcNAc(b1-2)Man(a1-3)[Fuc(a1-2)[Gal(a1-3)]Gal(b1-4)GlcNAc(b1-2)Man(a1-6)]Man(b1-4)GlcNAc(b1-4)GlcNAc
# In short: as §1
binder,measurement,setting,value
B1,glycan array binding signal (z-score),[1],-0.143
same,glycan array binding signal (z-score),[2],-0.058
same,glycan array binding signal (z-score),[3],0.249
same,glycan array binding signal (z-score),[4],-0.179
same,glycan array binding signal (z-score),[5],-0.181
same,glycan array binding signal (z-score),[6],-0.089
same,glycan array binding signal (z-score),[7],-0.129
same,glycan array binding signal (z-score),[8],-0.162
same,glycan array binding signal (z-score),[9],-0.159
same,glycan array binding signal (z-score),[10],-0.208
same,glycan array binding signal (z-score),[11],-0.203
same,glycan array binding signal (z-score),[12],0.062
same,glycan array binding signal (z-score),[13],-0.249
same,glycan array binding signal (z-score),[14],-0.206
same,glycan array binding signal (z-score),[15],-0.154
same,glycan array binding signal (z-score),[16],0.242
same,glycan array binding signal (z-score),[17],-0.076
same,glycan array binding signal (z-score),[18],-0.07
same,glycan array binding signal (z-score),[19],-0.182
same,glycan array binding signal (z-score),[20],-0.128
same,glycan array binding signal (z-score),[21],0.02
same,glycan array binding signal (z-score),[22],1.88
same,glycan array binding signal (z-score),[23],-0.206
same,glycan array binding signal (z-score),[24],-0.168
same,glycan array binding signal (z-score),[25],-0.226
same,glycan array binding signal (z-score),[26],-0.221
same,glycan array binding signal (z-score),[27],-0.107
same,glycan array binding signal (z-score),[28],-0.224
same,glycan array binding signal (z-score),[29],-0.225
same,glycan array binding signal (z-score),[30],-0.031
